Laboratory results as given in article PMC4336329 (PLoS ONE, 2015).
The whole screen tested about 310,000 compounds, of which about 2,200 (0.71%) showed an effect of 50% or more. The effect is printed as a negative number. This is one part of the list.

Each compound was assayed against human ether-à-go-go-related gene (hERG) potassium channel (human, UniProt Q12809) (assay: primary screen, population patch clamp on CHO cells stably expressing hERG).
Chain of human ether-à-go-go-related gene (hERG) potassium channel (Q12809 whole entry, looked up): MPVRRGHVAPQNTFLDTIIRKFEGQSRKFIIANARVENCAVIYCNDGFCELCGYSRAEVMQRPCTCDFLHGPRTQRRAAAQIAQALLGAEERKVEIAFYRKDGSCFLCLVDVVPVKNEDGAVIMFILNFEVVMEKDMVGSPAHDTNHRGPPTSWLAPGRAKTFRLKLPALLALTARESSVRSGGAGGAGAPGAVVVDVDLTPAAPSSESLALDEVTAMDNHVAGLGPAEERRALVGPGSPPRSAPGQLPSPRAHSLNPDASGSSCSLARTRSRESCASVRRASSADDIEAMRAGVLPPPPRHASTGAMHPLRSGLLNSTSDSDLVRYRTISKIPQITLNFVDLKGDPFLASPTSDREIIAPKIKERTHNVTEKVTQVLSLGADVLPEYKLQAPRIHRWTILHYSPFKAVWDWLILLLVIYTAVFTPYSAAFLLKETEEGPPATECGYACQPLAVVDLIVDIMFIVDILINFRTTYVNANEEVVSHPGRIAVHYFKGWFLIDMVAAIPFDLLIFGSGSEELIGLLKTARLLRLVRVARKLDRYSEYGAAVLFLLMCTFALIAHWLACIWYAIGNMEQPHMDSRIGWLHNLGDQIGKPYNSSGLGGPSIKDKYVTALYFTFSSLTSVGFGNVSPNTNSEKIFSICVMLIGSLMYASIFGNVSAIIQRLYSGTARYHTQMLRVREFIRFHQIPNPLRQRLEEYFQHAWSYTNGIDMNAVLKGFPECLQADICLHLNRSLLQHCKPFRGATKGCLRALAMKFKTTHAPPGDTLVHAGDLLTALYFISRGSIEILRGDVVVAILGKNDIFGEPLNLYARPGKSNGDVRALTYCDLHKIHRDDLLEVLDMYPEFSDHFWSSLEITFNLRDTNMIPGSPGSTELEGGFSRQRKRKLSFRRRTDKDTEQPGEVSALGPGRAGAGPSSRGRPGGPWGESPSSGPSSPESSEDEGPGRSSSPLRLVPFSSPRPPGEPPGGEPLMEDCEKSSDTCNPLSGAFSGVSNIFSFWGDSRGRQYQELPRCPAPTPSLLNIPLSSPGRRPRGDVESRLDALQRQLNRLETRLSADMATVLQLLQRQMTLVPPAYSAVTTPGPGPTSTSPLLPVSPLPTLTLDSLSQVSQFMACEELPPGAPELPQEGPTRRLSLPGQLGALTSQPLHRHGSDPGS

In order of falling “hERG current change (%, negative = inhibition) at 1uM” value:
1. O=C(CO)N/N=C/c1ccccc1F  18.3%
2. COc1ccc(C(=O)Nc2cc(C)c3c(=O)oc4ccccc4c3n2)cc1  16.8%
3. CC(C)N=C(NC#N)SCc1ccc(Br)cc1  15.7%
4. O=C(NCc1ccc(Cl)cc1)C(=O)Nc1nccs1  15.4%
5. Cc1c(Br)ccc(NC(=O)COc2ccccc2C(N)=O)c1C  14.8%
6. O=C(NCCC(=O)N1CCc2ccccc21)c1ccco1  14.7%
7. Clc1ccc(-c2nnc(-c3ccccc3)c(-c3c[nH]c4ccccc34)n2)cc1  14.7%
8. COC(=O)CCCCC(=O)OC  14.3%
9. COc1ccc(NC(=O)Cn2cnc3c(nnn3-c3ccc(C)cc3)c2=O)cc1  14.1%
10. Cc1nc(C)c(-c2csc(Nc3ccc(O)c(C(=O)O)c3)n2)s1  13.6%
11. CSc1ccc(-c2ccco2)nn1  13.5%
12. O=C(O)c1nn(CCOc2c(Cl)cccc2Cl)c(=O)c2ccccc12  13.4%
13. Cc1nc2c(C)cccn2c1C(=O)N/N=C/c1ccccc1[N+](=O)[O-]  13.3%
14. COc1ccc(C(=O)C2CC2c2ccc3c(c2)OCO3)cc1 (stereo not drawn)  13.2%
15. CNS(=O)(=O)c1ccc(N=Cc2c(O)n(-c3ccccc3)c(=O)[nH]c2=O)cc1  12.4%
16. COc1cc(/C=N/NC(=O)c2cc(C)oc2C)ccc1O  12.4%
17. Cc1cc(/C=N/NC(=O)c2ccncc2)c(C)n1-c1cccc(C(F)(F)F)c1  12.2%
18. CCCC1CCC(c2ccc(/C(N)=N/O)cc2)CC1 (stereo not drawn)  12.1%
19. COc1ccc(-c2noc(CSc3nc4ccccc4c(=O)n3-c3ccc(C)cc3)n2)cc1  11.7%
20. COC(=O)c1ccc(OC)c(OC2CCCC2)c1  11.6%
21. Fc1cccc(-c2oncc2-c2nnnn2-c2ccc(Cl)cc2)c1  11%
22. Cc1ccccc1S(=O)(=O)Cc1ccc(C(=O)NC2CCCCC2C)o1 (stereo not drawn)  11%
23. Cc1nn(CC(=O)OCC(=O)Nc2c(C(C)C)cccc2C(C)C)c(C)c1[N+](=O)[O-]  10.5%
24. Cn1ccc2c([N+](=O)[O-])cccc2c1=O  10.2%
25. COCCNC(=O)c1cc(-c2ccccc2)n(Cc2cc(C)no2)n1  9.99%
26. Cc1cc(Cl)ccc1OCCCC(=O)NCC1CCCO1 (stereo not drawn)  9.98%
27. CC(C)NC(=O)c1ccc2c(c1)N(CC(=O)Nc1ccccc1F)C(=O)C(C)(C)O2  9.75%
28. Cn1ccc(=NC=C(C#N)C#N)c2ccccc21  9.71%
29. CN(c1ccccc1)S(=O)(=O)c1cccc(C(=O)OCC(=O)NCc2ccc3c(c2)OCO3)c1  8.56%
30. COc1ccc(/C=C(\C#N)C(=O)OC2CCOC2=O)cc1 (stereo not drawn)  8.35%
31. CS(=O)(=O)c1cccc(-c2nnc(NC(=O)c3ccc4ncsc4c3)o2)c1  7.94%
32. C/C(=N/NC(=O)c1sc(NS(=O)(=O)c2ccc(C)cc2)nc1C)c1sc(N)nc1C  7.33%
33. CCc1nc2ccc(C(=O)N3CCN(c4ccc(Cl)cc4)CC3)cc2nc1CC  6.96%
34. COc1ccc(OCC(=O)Nc2cc(C)c(Cl)cc2OC)c([N+](=O)[O-])c1  6.88%
35. Cc1ccc(-n2c(O)c(C=Nc3cc(C)on3)c3ccccc3c2=O)c(C)c1  6.84%
36. CCCCCSc1nc2c(c(=O)[nH]c(=O)n2C)n1C  6.72%
37. COc1cc(S(=O)(=O)NC2CCCC2)ccc1Cl  6.55%
38. O=C1NC2(CCCCC2)Oc2ccccc21  6.35%
39. COc1cccc(CNC(=O)C2CCC(=O)N(CCc3cccc(F)c3)C2)c1 (stereo not drawn)  6.28%
40. CC1(C)Cc2c(C#N)c(N3CCOCC3)nc(Cc3ccccc3)c2CO1  6.05%
41. CN1C2C=C3C(C#N)=C(N)C(C#N)(C#N)C(c4ccc(Br)cc4)C3C1CC2 (stereo not drawn)  5.96%
42. COc1ccc(OC)c(S(=O)(=O)NCc2cn3ccsc3n2)c1  5.22%
43. N#Cc1cccc(NC(=O)C2SC(=Nc3ccccc3)C(C(=O)N3CCOCC3)=C2N)c1 (stereo not drawn)  2.72%
44. O=C(OCC(=O)N1CCCC1=O)c1cc(S(=O)(=O)N2CCOCC2)ccc1F  2.53%
45. O=C(Nc1ccc(C2SCCS2)cc1)c1ccccc1  2.36%
46. N#C/C(=C\c1cc2c(cc1Br)OCO2)C(=O)NCC1CCCO1 (stereo not drawn)  1.78%
47. Cc1cc(C)c(OCCN2CC(C)OC(C)C2)c(Br)c1.O=C(O)C(=O)O (stereo not drawn)  0.28%
48. Cc1ccc(CN2C(=O)CSC2c2cccnc2)cc1 (stereo not drawn)  -1.18%
49. CCNC(=S)NC1CC2CCCC(C1)N2Cc1ccco1 (stereo not drawn)  -2.58%
50. CCOC(=O)C1CCN(S(=O)(=O)c2c(C(=O)N3CCCCC3)c(C)n(C)c2C)CC1  -3.28%
51. CCOc1ccc(CNC(=O)CCCn2ccc3cc(S(=O)(=O)N4CCCC4)ccc32)cc1  -3.81%
52. COc1ccc(C(=O)C2CCCN(C3CSCCSC3)C2)c(OC)c1 (stereo not drawn)  -4.62%
53. C/C(=N\NC(=O)c1cccc(Cl)c1)C1C(=O)c2ccccc2C1=O  -5.36%
54. COc1ccc2oc(C(=O)OCC(=O)N(C)CC(=O)Nc3ccc(C)cc3)c(C)c2c1  -12.1%
55. O=C(NCC(=O)N(CCc1ccccc1)C(C(=O)NC1CCCC1)c1cccnc1)c1ccco1 (stereo not drawn)  -20.7%
56. CCOC(=O)C1(CCOc2ccccc2)CCN(Cc2cnc(SC)nc2)CC1  -28.4%
57. CN1CCN(C(=O)c2cnn(-c3ccccc3)c2NC(=O)c2ccc(Br)cc2)CC1  -88.5%
